The list shows a part of the results. Antibody binding of pooled human sera (four to six donors per pool; dilution not stated) to peptides of the Trypanosoma cruzi antigen TSSA on microarrays. Quantile-normalised fluorescence in arbitrary units, mean of duplicate arrays; higher = more binding. No active / inactive call. The uninfected pools are read here as the healthy donors of the same country. The strongest signals lie near the top of the scale (about 60,000).
tested on: pooled sera of uninfected people, Colombia; assay: antibody binding signal (normalised fluorescence) (arbitrary fluorescence units); higher = stronger serum antibody binding to peptide
Description: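 Microarray of 15-residue peptides over residues 30-55 of Trypanosoma cruzi TSSAII, each with 1 to 10 substitutions at naturally variable positions, probed with one serum pool per country.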

| Sequence | antibody binding signal |
| --- | --- |
| TPPSGKEKKAATGET | 554 |
| GKENKAAAGGTPSPP | 188 |
| NKAATGEAPSPPGAS | 661 |
| DNKTATGEAPSPPGA | 153 |
| GTDNKAATGEAPSQP | 120 |
| STPPSGKEKKTATGG | 224 |
| DNKAAAGETPSQPGA | 231 |
| SGTEKKTATGGAPSP | 122 |
| TDKKAAAGEAPSQPG | 102 |
| TENKAAAGGTPSPPG | 385 |
| GTDKKPAAGEAPSPP | 137 |
| DKKAATGGAPSPSGA | 635 |
| KPATGGAPSQPGASS | 100 |
| KDNKAATGGAPSPSG | 164 |
| ISTPPSGTDNKAAAG | 226 |
| SGTEKKAAAGGTPSQ | 186 |
| PPSGTEKKTATGETP | 149 |
| GTDNKPATGGAPSQP | 205 |
| GTDNKTATGETPSQP | 129 |
| GTENKTAAGEAPSQP | 225 |

| Sequence | antibody binding signal |
| --- | --- |
| PSGTENKPAAGETPS | 512 |
| TENKTAAGETPSQSG | 134 |
| SGTEKKAATGEAPSQ | 550 |
| SGTENKAATGGTPSQ | 180 |
| ISTPPSGKEKKTAAG | 199 |
| GKDKKTAAGEAPSPP | 472 |
| TPPSGTEKKAAAGET | 175 |
| DNKPATGGAPSQPGA | 356 |
| TPPSGKDKKAATGGA | 290 |
| TPPSGKEKKTAAGET | 1460 |
| STPPSGKDKKAAAGE | 175 |
| TPPSGKENKAAAGET | 1090 |
| PPSGKDKKAAAGGAP | 322 |
| TPPSGTDNKTAAGEA | 244 |
| ISTPPSGTDNKPATG | 272 |
| PSGTENKTATGETPS | 357 |
| TENKAATGGTPSPSG | 1010 |
| TDNKPATGGTPSPSG | 847 |
| TDNKTATGEAPSPSG | 182 |
| TPPSGKDKKTAAGET | 607 |

Reference: the supplement of paper PMC10441789
